In the RNAGym collection of RNA variant scans (doi:10.7554/elife.90254):
The source gives no read counts; variants with many changes may rest on few reads.

B1: LINE1-mini (parent)
chain: GGCAGAGCUCAACACAGCGUGGCAAAGUGGCUGUGGCUAGACUGCC

Variants of: B1
Assay: self-cleavage, relative activity (ratio to wild type); higher = more cleavage; in vitro, sequencing; the parent is a self-cleaving ribozyme

| Variant | self-cleavage |
| --- | --- |
| C3A G5U C23A | 0.35 |
| C3A A6U A25G U28C | 0.13 |
| G2U U9G G21A C23U G29A | 0.02 |
| G2U G22U C37A | 0.04 |
| G2U G29A C31U | 0.05 |
| C3A C13A C42U | 0.12 |
| G2U G7A C31A A39G C46A | 0 |
| C3A A11U C23G | 0.06 |
| C3A G5C G33C | 0.08 |
| G2U G17A G21U A41C | 0 |
| C3A A4U A6G C18A A24G | 0.12 |
| C3A C18U G30U C42U | 0.13 |
| G2U U9G G21C A24G A25C G30C A39U | 0.01 |
| C3A G5U U9G | 0.3 |
| G2U U9G C10U C18U | 0.02 |
| G2U C13G A24U C45A C46U | 0.02 |
| G2U G22C U38A | 0.05 |
| C3A C10A G22C | 0.02 |
| C3A A12C U34A U43A | 0.03 |
| C3A G7U C8U A12C U28G A41C | 0.03 |
| C3A G5C A26U C37G G44A | 0.12 |
| C3A A6G C15G | 0.07 |
| G2U U9A G19U G21U G22A | 0.01 |
| C3A A16U A41C | 0.08 |

| Variant | self-cleavage |
| --- | --- |
| C3A A4C A25C A41G | 0.13 |
| C3A C8A A12U C18A U28A | 0.27 |
| C3A A14G G19C G30U G40U A41G | 0.43 |
| C3A A24U A41C U43G C45G | 0.47 |
| C3A A12G A14G A16C | 0.06 |
| G2U G7A G29A C37G G40A | 0.02 |
| C3A C10U G19U G27C | 0.08 |
| G2U G19C G30A G36U | 0.06 |
| G2U C13U G22U | 0.01 |
| G2U C23G C42G | 0.08 |
| G2U G7A C13U G17A | 0.06 |
| G2U G5U G27A G30U | 0.01 |
| G2U G5U G19U | 0.02 |
| G2U G21U A24G | 0.05 |
| C3A A11G G22C A41U | 0.04 |
| G2U C15U G36A C37A | 0.01 |
| C3A G7C A16C C18G | 0.04 |
| C3A C15G U34G | 0.05 |
| C3A C13G A39G | 0.32 |
| C3A C8U G21A U28A U34A G40A A41G | 0.08 |
| C3A C13G C31G G36U G40U | 0.23 |
| C3A A14C U43C C45A | 0.23 |
| C3A C10U C15A A25C U34G G40C | 0.07 |
| C3A G7U C13A G33U | 0.08 |

| Variant | self-cleavage |
| --- | --- |
| C3A C23A A41G | 0.07 |
| G2U U9G G22A | 0 |
| C3A C15G U20A | 0.05 |
| C3A G5U C10A A14C A24U C42G | 0.04 |
| G2U U9C A11C G35A C42A C45A | 0 |
| G2U G27C G35A | 0.07 |
| C3A G5U G7U C15G A16U G22C | 0.08 |
| C3A C15G G30A U43A | 0.03 |
| C3A A12U C37G A41U U43C | 0.06 |
| G2U G7C A16G G19A C31A | 0.03 |
| C3A A14U G33U U34G | 0.04 |
| G2U G17U A41C | 0.06 |
| C3A A12U G40A | 0.18 |
| C3A G5A C23G G36C G44U | 0.24 |
| C3A A11G C18U G36U | 0.02 |
| C3A G7C C31G A39C | 0.06 |
| G2U U9G U32A | 0 |
| C3A G5A U9G | 0.7 |
| G2U G29U G33A | 0.05 |
| G2U C23U C31A G33C | 0.02 |
| G2U G21C C37U G40A | 0.01 |
| G2U U9C G30U | 0.01 |
| G2U C15U U28G | 0.11 |
| C3A A16C A26U | 0.06 |

| Variant | self-cleavage |
| --- | --- |
| C3A C23U C46A | 0.14 |
| C3A C23U C46U | 0.24 |
| G2U C18G U28A C31A G33A | 0.01 |
| G2U C15U C18A G27A G33U G36A | 0 |
| C3A A12G C13U G17C G30A U38A C45G | 0.01 |
| C3A A12U A14U C42A | 0.17 |
| C3A A4U G35C | 0.05 |
| G2U U34G G35A G40C | 0 |
| C3A A26U G33C G44C | 0.02 |
| C3A A4G G7U U9A C23A | 0.16 |
| G2U G22U G29U G30U U32G G44U | 0.03 |
| C3A A4C A12U U20A C23U | 0.01 |
| G2U C15A C23U G29U | 0.01 |
| G2U G21U A26G | 0.01 |
| C3A C15U U34C | 0.3 |
| G2U U34G A39G | 0 |
| C3A A26C G35U | 0.17 |
| G2U G7U A16U U34A | 0 |
| G2U G7C U28A U38C C45A | 0.02 |
| G2U G5U G22U U34C G44A | 0.06 |
| G2U C15G U28A A41G | 0.02 |
| G2U C13A U20C G33U | 0.12 |
| G2U G17A G35U G44C | 0.03 |
| G2U G7U G22A G29C | 0.02 |

| Variant | self-cleavage |
| --- | --- |
| C3A C15A A39U | 0.14 |
| C3A A4G G17A U20A C42G | 0.06 |
| C3A C8U U9G | 0.35 |
| C3A G7U A26G A41U | 0.38 |
| G2U G5U A11U | 0.05 |
| G2U C15A U20C | 0.04 |
| G2U G7A G22A A26G U34G C46A | 0.05 |
| G2U G5C G40A | 0.02 |
| C3A A6C C8A | 0.31 |
| G2U G7A G36U A41G | 0.15 |
| G2U G36C G40U | 0.19 |
| G2U U38G G40A | 0.02 |
| G2U U28G G36A C42U | 0.02 |
| C3A A11U C18U G30C U43C | 0.04 |
| G2U C15A G29U G33C G36A A39C | 0.01 |
| G2U U9G G19U U28G U43C | 0.02 |
| G2U U9C A24C A41C G44A | 0.01 |
| C3A G5C C15U C23U | 0.14 |
| C3A G7A C13G C23U U34C | 0.4 |
| G2U G5A C45U | 0.03 |
| C3A G7A A24G U38C | 0.51 |
| C3A A11U C23G A39C C46U | 0.01 |
| C3A A6U C8A G19C | 0.36 |
| C3A C23U U34A A39C | 0.02 |

| Variant | self-cleavage |
| --- | --- |
| C3A G7A C15A G30A U43C | 0.06 |
| C3A A11G A24G C42G | 0.03 |
| C3A G7U G22A G33U C46A | 0.09 |
| C3A C18A A25C G36C G40U | 0.05 |
| G2U G19C G27C C42A | 0.01 |
| C3A C18G C45U | 0.1 |
| C3A G5C U20G | 0.15 |
| C3A C10U G40C | 0.09 |
| G2U G5U C23U | 0.02 |
| C3A C10A A16U C18G | 0.04 |
| C3A C8U U9G U20A U43A | 0.12 |
| G2U G7U A12U A14U U20G | 0 |
| G2U C13G C23G G27C | 0.01 |
| C3A A6U C10G G17A G21U A26G G33U | 0.03 |
| G2U G5U U9G G29C | 0.01 |
| C3A G5U C37A C42G | 0 |
| G2U G7U U32A | 0.04 |
| G2U G7U U20A G21A G27A | 0.06 |
| G2U G19U G30A | 0.04 |
| G2U G19C G21A A25U A41G C46G | 0.01 |
| C3A A4U U34G | 0 |
| G2U U20C U34C G40A | 0.04 |
| C3A C23U U38C | 0.37 |
| G2U C31U A39G C42G | 0.02 |

| Variant | self-cleavage |
| --- | --- |
| C3A C13U G30C G36C | 0.08 |
| C3A C37U C42G | 0.07 |
| C3A G5C G35C | 0.13 |
| G2U G17U G27A C37U C45U | 0.05 |
| C3A C8A C10U G17C A41U | 0.04 |
| G2U C15A G17C G22U G33U | 0.01 |
| C3A A12G U20C U28A G35A G36U | 0.26 |
| C3A G5A C42U U43A | 0.52 |
| G2U C15A U20A G29C G44A | 0.01 |
| C3A A24U G27C G29A G40C | 0.1 |
| C3A G7A G22A | 0.2 |
| C3A A6G C10U G29A C31G G33C | 0.02 |
| C3A C31A G33A | 0.34 |
| C3A C8U U34A G44C | 0.18 |
| C3A G7U C8A G27A G33C | 0.3 |
| C3A A26C U34G | 0.14 |
| C3A A12C C13G C46U | 0.3 |
| G2U C13U G33C | 0.02 |
| C3A A12C C45A | 0.02 |
| C3A A4U U9C | 0.04 |
| G2U G5C G33U | 0.01 |
| C3A C15U G21U A24U G30U | 0.4 |
| C3A C42G U43G | 0.11 |
